# In all, about 340,000 compounds went through this assay and about 12,000 (3.5%) were called active. The inconclusive results got no clear call from the source; some entries with a clear call stand among them for comparison. The call rests on the fitted dose curve; in most records, active means well fitted inhibition curve with a large enough effect; inconclusive means small, poorly fitted or top-dose-only effect, or another doubt; inactive means no such curve, though single readings can be large or run the other way. Potencies of inconclusive entries are left out as doubtful fits.
# Experiment: qHTS Assay for Inhibitors of Hepatitis C Virus (HCV)
# Conditions: Huh7.5.1 HCVcc-Cre (HCVcc is cell-culture hepatitis C virus) infection, luciferase reporter, 44 h; activity change, negative = inhibition: at 41.8 µM (top of the series)
# Summary of the method: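 Seed cells (1,000/well) for 4 h; treat with compound and infect with HCVcc-Cre, moi about 0.5. Incubate 44 h, then detect luciferase activity.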
# On the % scale 0 is the no-effect control and ±100 the full control effect; potency means the concentration at half of the fitted maximal effect; tags describe the fitted curve by direction and shape.
SMILES,Potency,"activity change, negative = inhibition"
O=C(CN1C(=O)/C(=C/c2ccccc2F)Sc2ccccc21)NCCCN1CCOCC1,"inconclusive [inhibitor, single point]",–
Cc1ccc(NCc2nnc(SCC(=O)Nc3ccccc3)n2CC2CCCO2)c(C)c1 (stereo not drawn),inactive,–
COC(=O)c1c(-c2ccc(F)cc2)csc1NC(=O)C1CCCO1 (stereo not drawn),"inconclusive [inhibitor, partial curve]",–
CC(/C=C/c1ccc2c(c1)OCO2)=N/NC(=O)c1ccc(C)nc1,"inconclusive [inhibitor, single point]",–
COc1ccccc1C1CC(=O)Nc2c1c(=O)n(C)c(=O)n2C (stereo not drawn),–,inactive: 1.05%
O=C(CNC(=O)c1ccccc1Cl)Nc1ccc(Br)cc1C(=O)c1ccccc1,"inconclusive [inhibitor, single point]",–
COc1cccc(Nc2nc(-c3sc(NC(=O)c4ccccc4)nc3C)cs2)c1,–,inactive: -18.7%
CCCOC(=O)c1c(NC(=O)CCCn2nc([N+](=O)[O-])cc2C)sc(C(=O)OC)c1C,"inconclusive [inhibitor, full curve]",–
CC(=O)c1ccc(S(=O)(=O)NCc2ccc(C(=O)NCC(c3ccccc3)N(C)C)cc2)cc1 (stereo not drawn),"inconclusive [inhibitor, single point]",–
Cc1nn(-c2ccccc2)c2nc(-c3cccs3)cc(C(=O)NN)c12,"inconclusive [inhibitor, single point]",–
COc1ccc(C(CNC(=O)c2cccc(S(=O)(=O)N(C)c3ccccc3)c2)N2CCCC2)cc1 (stereo not drawn),"inconclusive [inhibitor, partial curve]",–
CC(=O)OC1C(O)C(C)OC(OC2C(OC(=O)C3CCC4C(C3)OC3(CC(OC(=O)/C=C/c5ccccc5)C(C)CO3)C43CO3)OC(C)C(O)C2OC(C)=O)C1O (stereo not drawn),"inconclusive [inhibitor, full curve]",–
OCCN(CCO)c1nc(-c2ccccc2)nc2c1oc1ccccc12,"inconclusive [inhibitor, single point]",–
CCn1c(C(=O)N2CCCC(C(=O)O)C2)cc2sccc21 (stereo not drawn),–,inactive: 11.4%
CC1CCN(CCCCOc2ccccc2Br)CC1,"inconclusive [inhibitor, partial curve]",–
COc1ccc(C(=O)N/N=C/c2ccccc2C(=O)O)cc1OC,–,inactive: 10.9%
O=C(COC(=O)C1=COCCO1)NC(=O)c1ccc(OC(F)F)cc1,"inconclusive [inhibitor, full curve, poor fit]",–
Oc1ccccc1/C=N/Nc1nccnc1Cl,"inconclusive [inhibitor, single point]",–
CCc1ccc(C(=O)CSc2nc3cc(S(=O)(=O)N4CCOCC4)ccc3n2CC)cc1,"inconclusive [inhibitor, partial curve]",–
COCCN(Cc1cc2cc3c(cc2nc1Cl)OCO3)C(=O)Nc1ccc(OC)cc1,"inconclusive [inhibitor, full curve]",–
O=C(C1=C[C@@H](c2ccc(Br)cc2)C[C@@H](OCc2ccc(CO)cc2)O1)N1CCN(Cc2ccc3c(c2)OCO3)CC1,"inconclusive [inhibitor, single point]",–
CC1CCN(CCCNC(=O)c2cc3c(=O)n(C)c4ccccc4c3n2C)CC1,"inconclusive [inhibitor, single point]",–

SMILES,Potency,"activity change, negative = inhibition"
CCOc1ccccc1-c1nc(-c2ccncc2)no1,"inconclusive [inhibitor, partial curve, poor fit]",–
CC(C)c1ccc(NC(=O)CCNS(=O)(=O)c2cc(Br)cnc2N)cc1,–,inactive: 9.92%
Fc1ccc(-c2csc(-c3ccncc3)n2)cc1,"inconclusive [inhibitor, partial curve]",–
CC(=O)O[C@@]12CO[C@@H]1C[C@@H](O)[C@@]1(C)C(=O)[C@H](O)C3=C(C)[C@@H](OC(=O)[C@H](O)[C@@H](NC(=O)c4ccccc4)c4ccccc4)C[C@@](O)([C@@H](OC(=O)c4ccccc4)C12)C3(C)C (stereo partly drawn),active: 0.316 µM,–
CCN1CCN(C(=O)c2ccc3c(=O)n(C4CCCC4)c(=S)[nH]c3c2)CC1,"inconclusive [inhibitor, full curve]",–
COc1cc2c(cc1OC)-c1cc(Nc3cccc(F)c3)nc(=O)n1CC2,–,inactive: 29.5%
Oc1cc(O)cc(/C=C/c2ccc(O)c(O)c2)c1,active: 0.562 µM,–
COc1ccc(CCNC(=O)c2c[nH]c3ccccc3c2=O)cc1OC,"inconclusive [inhibitor, single point]",–
COc1ccc(N2CCN(C(=O)CN(CCc3ccccc3)S(C)(=O)=O)CC2)cc1,–,inactive: -19.1%
COC(=O)C1=C(c2cccc(OCc3ccccc3)c2)C[C@@H]2CC[C@H]1N2C(=O)NCc1ccc([N+](=O)[O-])cc1,"inconclusive [inhibitor, partial curve]",–
O=S(=O)(Nc1ccc(OC(F)F)cc1)c1ccc(-c2ccon2)s1,–,inactive: -12.3%
Cc1cc(Br)ccc1NC(=O)c1sc2ncnc(N3CCN(c4ccccn4)CC3)c2c1C,"inconclusive [inhibitor, partial curve]",–
CCCCC(CC)CO (stereo not drawn),–,inactive: -2.93%
COc1ccccc1CCn1cnc2c3cc(C)ccc3n(C)c2c1=O,"inconclusive [inhibitor, single point]",–
CCN1CCN(c2nc(Nc3cccc(OC)c3)nc(N)c2[N+](=O)[O-])CC1,"inconclusive [inhibitor, full curve]",–
COc1ccc(-c2csc(NC(=O)c3ccco3)n2)cc1,"inconclusive [inhibitor, single point]",–
CCN(Cc1ccccc1)C(=O)CSc1nc(C)cc(C)c1C#N,active: 10 µM,–
COc1ccc(-c2nc(-c3cccnc3)no2)cc1,–,inactive: -9.68%
Cc1ccc(S(=O)(=O)Nc2cc3c4c(c2)CC(=O)N4CCC3)cc1,"inconclusive [inhibitor, partial curve, poor fit]",–
O=C(COc1ccc(Cl)cc1Cl)Nc1ccc(C(=O)Nc2ccccc2C(=O)O)cc1,–,inactive: -7.55%
COC(=O)c1sc(NC(=S)NC(=O)c2ccccc2Cl)nc1C,–,inactive: -21.4%

# From PubChem BioAssay AID651820 (National Center for Advancing Translational Sciences (NCATS), 2012)
